Measurements published in the supplement of paper PMC6531468.
Some of the results follow. Read counts after selection give these values, which scatter widely. Each score is taken over the longer molecules that contain the sequence shown.

Test system: IMP3 KH1-4
Test: 6-mer SELEX enrichment z-score vs GST control; IMP3 is the RNA-binding protein IGF2BP3; higher = more enriched by binding
Details: construct: KH1-4 (164-579); SELEX round: R4
Procedure: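 SELEX-seq with GST-tagged IMP3 KH1-4 (Pro164-Lys579) and an N40 RNA pool, round 4. 6-mer z-score of sequence-tag enrichment normalised to the corresponding GST SELEX round; RNA k-mers written as DNA (T for U).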

Sequence of IMP3 KH1-4 (chain, as listed by the source): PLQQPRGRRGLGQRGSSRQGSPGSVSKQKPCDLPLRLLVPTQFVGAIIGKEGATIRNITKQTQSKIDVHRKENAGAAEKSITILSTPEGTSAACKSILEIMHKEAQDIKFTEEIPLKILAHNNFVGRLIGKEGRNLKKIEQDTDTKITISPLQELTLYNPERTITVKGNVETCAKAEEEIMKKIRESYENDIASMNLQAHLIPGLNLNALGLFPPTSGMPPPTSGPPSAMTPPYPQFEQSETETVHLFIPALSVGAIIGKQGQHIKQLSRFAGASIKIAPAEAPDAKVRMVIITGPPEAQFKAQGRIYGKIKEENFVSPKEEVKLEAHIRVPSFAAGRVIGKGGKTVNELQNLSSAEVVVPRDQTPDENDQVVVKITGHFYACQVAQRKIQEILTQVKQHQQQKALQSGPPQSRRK

Sequence | 6-mer SELEX enrichment z-score
TCAGGC | 0.522
CTGACG | -1.21
CGGCGC | 0.006
GACCCA | -2.15
ACAAAT | 1.6
CGCAGC | -0.614
CATGCT | 0.405
ATAATA | 2.28
GGCTCA | 0.238
GAGGCT | 0.28
TATGCC | -0.077
CTACGC | -0.226
TTATAA | 1.47
AGGAAA | 0.722
CGTAAA | -1.59
ACGCAT | 0.524
AAGTCA | 0.281
AACAAG | -0.165
ATATAG | 1.61
CTCTCC | 0.106

Sequence | 6-mer SELEX enrichment z-score
ACCGAG | -3.46
ATTGCT | 0.587
GACCTG | -1.36
ATGGGA | 0.928
ACGAGC | -4.92
GATGGA | 1.02
CCATTT | 0.844
TTACGA | -0.008
ACTCTC | -0.198
TACATT | 1.79
TAAGCC | -0.351
TGGATC | -0.16
TCAGTG | -0.02
TACTTT | 0.668
GCGTGA | -1.19
GGTTGG | 0.182
TGATTC | 0.579
TCTCGT | -0.37
CAGCGG | 0.339
GTGCTA | -0.138
